Out of some 410,000 compounds screened, about 6,400 (1.6%) were called active. The shares of active, inactive and inconclusive entries below differ from those in the screen. The call rests on the fitted dose curve; in most records, active means well fitted inhibition curve with a large enough effect; inconclusive means small, poorly fitted or top-dose-only effect; inactive means no such curve, though single readings can be large or run the other way. Potencies of inconclusive entries are left out as doubtful fits.
The compounds below were run against Glucagon-like peptide 1 receptor (Homo sapiens) (UniProt P43220) (assay: qHTS of GLP-1 Receptor Inverse Agonists (Inhibition Mode)). Details: HEK293 GLP-1R CRE-luciferase, luminescence, 24 h, GLP-1R form is constitutively active; series mostly up to 38.3 µM.
Method in brief: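 Readout was luciferase luminescence, measured 12 min after detection reagent at room temperature. Beforehand, GLP-1R reporter HEK293 cells had sat 12 h, then received compounds for 24 hr at 37 deg C.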
Further: nearly all actives have a fitted effect of over 55% in size.
Potency means the concentration at half of the fitted maximal effect; tags describe the fitted curve by direction and shape.

Sequence of UniProt P43220 (P43220 whole entry, looked up): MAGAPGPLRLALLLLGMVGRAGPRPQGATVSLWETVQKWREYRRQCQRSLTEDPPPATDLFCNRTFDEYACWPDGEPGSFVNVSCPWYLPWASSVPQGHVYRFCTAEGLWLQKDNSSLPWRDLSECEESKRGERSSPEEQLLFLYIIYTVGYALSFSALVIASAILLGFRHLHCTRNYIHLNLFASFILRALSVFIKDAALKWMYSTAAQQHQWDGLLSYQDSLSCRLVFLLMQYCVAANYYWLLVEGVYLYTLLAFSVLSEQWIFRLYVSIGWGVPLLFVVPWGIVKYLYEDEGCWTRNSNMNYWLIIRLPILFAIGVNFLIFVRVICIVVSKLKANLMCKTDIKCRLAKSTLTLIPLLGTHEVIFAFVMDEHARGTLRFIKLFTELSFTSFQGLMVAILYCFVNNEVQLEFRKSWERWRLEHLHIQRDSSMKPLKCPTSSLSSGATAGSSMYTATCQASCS

Row | Compound | Potency
1 | CCNc1nc(NC(C)CC)nc(Oc2ccc(OCC)nn2)n1 (configuration not stated) | inactive
2 | COc1ccc(OCC(=O)Nc2nc(-c3ccc(Br)cc3)ns2)cc1 | inconclusive [inhibitor, single point]
3 | COc1cccc(NC(=O)Nc2nc(-c3ccc(OC)c(OC)c3)cs2)c1 | inconclusive [inhibitor, partial curve, poor fit]
4 | O=C(Nc1ccc(Cl)cc1)c1cc(S(=O)(=O)N2CCCc3ccccc32)ccc1F | inconclusive [inhibitor, partial curve, poor fit]
5 | CCCn1ncc(CN2CCC(Cc3cccc(F)c3)(C(=O)OCC)CC2)c1C | inconclusive [inhibitor, partial curve, poor fit]
6 | CCc1c(C)c2ccc(OCC(=O)OC)cc2oc1=O | inactive
7 | O=[N+]([O-])c1ccc(/C=N/Nc2ncccc2[N+](=O)[O-])s1 | inconclusive [inhibitor, full curve, poor fit]
8 | Clc1ccccc1CSc1cnnc2ccccc12 | inconclusive [inhibitor, partial curve, poor fit]
9 | CC(=O)N1c2c(cc(Br)cc2S(=O)(=O)Nc2ccc(OC(F)(F)F)cc2)CC1C (configuration not stated) | inconclusive [inhibitor, single point]
10 | Cc1ccc(C)c(OCCC(=O)Nc2cccc(S(=O)(=O)N3CCCCC3)c2)c1 | inconclusive [inhibitor, partial curve, poor fit]
11 | [O-]/C(=C(\C(=S)Nc1cccc2ccccc12)[n+]1ccccc1)c1ccc(Cl)s1 | inconclusive [inhibitor, partial curve, poor fit]
12 | O=C(CCn1c(=O)[nH]c2ccccc2c1=O)N1CCN(c2cccc(C(F)(F)F)c2)CC1 | inconclusive [inhibitor, single point]
13 | O=C1/C(=C/c2cccs2)COc2ccccc21 | inconclusive [inhibitor, partial curve, poor fit]
14 | CCn1cc(C(=O)N2CCc3ccccc32)c(=O)c2cc(S(=O)(=O)N3CC(C)CC(C)C3)ccc21 (configuration not stated) | inconclusive [inhibitor, single point]
15 | CNC(=O)CSCc1c(Cl)cccc1Cl | inactive
16 | CCOC(=O)C(C(=O)OCC)c1cc(Br)c2noc3c2c1C(=O)c1ccccc1-3 | inactive
17 | COc1cc(-c2nccc3cc4c(cc23)OCO4)cc(OC)c1OC | inconclusive [inhibitor, full curve, poor fit]
18 | Cc1ccc(OCC(=O)NNC(=O)C2CCN(c3nccc(C)n3)CC2)cc1 | inconclusive [inhibitor, full curve, poor fit]
19 | O=C(CCCSc1ccccc1)Nc1nc(-c2ccccn2)cs1 | inconclusive [inhibitor, partial curve, poor fit]
20 | Cc1ccc(C2c3c(-c4ccccc4O)n[nH]c3C(=O)N2CCc2ccccc2)cc1 (configuration not stated) | inconclusive [inhibitor, single point]
21 | O=S(=O)(Oc1ccccc1-c1ccccc1)c1ccccc1 | inconclusive [inhibitor, single point]

Row | Compound | Potency
22 | COc1cccc(CNC(=O)Cn2nc3c(cc2=O)CCCC3)c1OC | inactive
23 | O=C(Nc1cccc(NC(=O)c2c(F)cccc2F)n1)c1c(F)cccc1F | inconclusive [inhibitor, single point]
24 | CN(CCOc1ccccc1)C(=O)CCc1nc2sc3c(c2c(=O)[nH]1)CCCC3 | inconclusive [inhibitor, single point]
25 | Cc1nc(SCC(=O)Nc2ccc(S(=O)(=O)N3CCOCC3)cc2)c2c(C)c(C)sc2n1 | inconclusive [inhibitor, full curve, poor fit]
26 | CCOCCCNS(=O)(=O)c1ccc(NC(=O)N2c3ccccc3Sc3ccccc32)cc1 | inconclusive [inhibitor, single point]
27 | Cc1nc2c3ccccc3n(Cc3ccccc3F)c2s1 | inconclusive [inhibitor, single point]
28 | COc1ccc(COC(=O)c2ccc(Br)c(S(=O)(=O)N3CCOCC3)c2)cc1F | inconclusive [inhibitor, single point]
29 | CC1(C)CC(c2nc(-c3ccccc3)cs2)CCS1 (configuration not stated) | inconclusive [inhibitor, single point]
30 | CCCc1cc(=O)[nH]c(SCC(=O)N2N=C(c3ccc(Cl)cc3)CC2c2ccco2)n1 (configuration not stated) | inconclusive [inhibitor, single point]
31 | CCCNC(=S)N1CCC(n2cnc3ccccc32)CC1 | inactive
32 | COc1ccc(CN(C)CC(O)COc2ccc(C(=O)c3ccccc3)cc2)c(OC)c1OC (configuration not stated) | inconclusive [inhibitor, full curve, poor fit]
33 | CN(Cc1c(F)cccc1Cl)S(=O)(=O)c1cccs1 | inconclusive [inhibitor, partial curve, poor fit]
34 | CCCN(CC1CC1)C(=O)CCc1nnc(CCc2c[nH]c3ccccc23)o1 | inconclusive [inhibitor, single point]
35 | O=C(NCCC1CCCCN1S(=O)(=O)c1ccc(Cl)cc1)C(=O)NCc1ccco1 (configuration not stated) | inconclusive [inhibitor, partial curve, poor fit]
36 | CCOC(=O)c1cnn(-c2nc(-c3ccccc3)cs2)c1C(F)(F)F | inconclusive [inhibitor, single point]
37 | COc1cc(C2CC(=O)N3CN(Cc4ccccc4)CSC3=C2C#N)ccc1OCc1ccccc1 (configuration not stated) | inconclusive [inhibitor, single point]
38 | Cc1ccc2nc(NC(=S)NC(=O)c3ccco3)sc2c1 | inconclusive [inhibitor, full curve, poor fit]
39 | COc1ccc(-c2nnc(C3CCN(S(=O)(=O)c4ccccc4)CC3)o2)cc1 | inconclusive [inhibitor, partial curve, poor fit]
40 | C/C(=N\O)c1ccn(S(=O)(=O)c2ccc(Cl)cc2)c1 | inconclusive [inhibitor, single point]
41 | COc1ccccc1OCCn1cc(/C=N/NC(N)=S)c2ccccc21 | inconclusive [inhibitor, full curve]
42 | Cc1nnc(-c2cccc(Br)c2)c2cn(-c3cccc(Br)c3)nc12 | inconclusive [inhibitor, partial curve]

Row | Compound | Potency
43 | O=C(NCc1ccc(Cl)cc1)c1ccc2oc(=O)n(Cc3ccccc3)c2c1 | inconclusive [inhibitor, single point]
44 | CCOC(=O)c1c(O)cc(C)cc1Nc1ccccc1 | inconclusive [inhibitor, single point]
45 | Cc1nc(-c2cccc(NC(=O)COc3ccc(Cl)cc3)c2)cs1 | inconclusive [inhibitor, single point]
46 | CCCCn1cc(S(=O)(=O)c2ccc(Cl)cc2)c(=O)c2cc(F)c(N3CCCC(C)C3)cc21 (configuration not stated) | inactive
47 | O=C(c1ccc([N+](=O)[O-])s1)N1CCN(c2ccccc2)CC1 | inactive
48 | COCCNc1ncnc2c1cnn2Cc1ccc(Cl)cc1 | inconclusive [inhibitor, full curve]
49 | CC(C)c1nnc(NC(=O)C2CCN(C(=O)Nc3ccc(Cl)cc3)CC2)s1 | active: 3.98 µM
50 | Cc1cc(C)c2[nH]c(C(=O)Nc3ccc4c(c3)OCO4)cc2c1 | inconclusive [inhibitor, full curve]
51 | CCOC(=O)c1c(NC(=O)C2C3C=CC(C3)C2(C)C(=O)O)sc2c1CCCC2 (configuration not stated) | inconclusive [inhibitor, single point]
52 | O=C(Cc1ccc(Cl)cc1)N/N=C/c1ccccc1 | inconclusive [inhibitor, single point]
53 | O=C(c1sc2cc(F)ccc2c1Cl)N1CCN(c2cccc(Cl)c2)CC1 | inconclusive [inhibitor, single point]
54 | O=C(Nc1ccc(N2CCCCCC2)cc1)c1cccc(S(=O)(=O)N2CCOCC2)c1 | inconclusive [inhibitor, partial curve]
55 | O=c1[nH]c2cccc(Cl)c2n(CCNc2ncc(C(F)(F)F)cc2Cl)c1=O | inconclusive [inhibitor, single point]
56 | COC(=O)c1c(SC)nc2ccccc2c1OCc1ccc(C)cc1 | inconclusive [inhibitor, partial curve, poor fit]
57 | Cc1ccsc1C(=O)Nc1ccccc1N1CCCC1 | inconclusive [inhibitor, partial curve, poor fit]
58 | CCOc1ccc(C2=C(C(=O)CC)Sc3nncn3N2C(=O)CC)cc1 | inconclusive [inhibitor, single point]
59 | CCCCC(O)(CCCC)C(=O)NNc1ccccc1 | inconclusive [inhibitor, partial curve, poor fit]
60 | COc1ccc(/C(N)=N/OC(=O)N2CCOCC2)cc1 | inconclusive [inhibitor, partial curve, poor fit]
61 | Cc1ccc(S(=O)(=O)N2CCCCC2CCNC(=O)C(=O)NCCc2ccco2)cc1 (configuration not stated) | inconclusive [inhibitor, partial curve, poor fit]
62 | Cc1c(C(=O)NCCCN2CCOCC2)sc2ncnc(N3CCN(c4ccccc4)CC3)c12 | inconclusive [inhibitor, partial curve]

Source: PubChem BioAssay AID624417 (National Center for Advancing Translational Sciences (NCATS), 2012)
